The supplement of paper PMC10369915
The list shows a part of the results. No stated cut-off is given here; in the data, active = 3.2 or more and inactive = the rest. The signal is at background level for most entries.

Assays:
Assay in all cases: enrichment score (SH2-bound / input frequency) (ratio); bacterial display of known human phosphotyrosine sites (pTyr-Var adds point mutants) read by sequencing; higher = stronger binding; tyrosines were phosphorylated by kinases first
Settings in all cases: peptide library: pTyr-Var
SHP2 C-SH2 domain E139D = target: SHP2 C-SH2 domain E139D
[1] = target: SHP2 C-SH2 domain wild-type
SHP2 N-SH2 domain L43F = target: SHP2 N-SH2 domain L43F
SHP2 N-SH2 domain T42A = target: SHP2 N-SH2 domain T42A
SHP2 N-SH2 domain T52S = target: SHP2 N-SH2 domain T52S
[2] = target: SHP2 N-SH2 domain wild-type

Measured: enrichment score
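Further: displayed peptides selected on beads carrying the immobilized SH2 domain, with library peptides lacking any tyrosine serving as negative controls.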

VMVCAYLLHRG [PTEN_Y138_I135V]
inactive: SHP2 C-SH2 domain E139D 1.46 | [1] 1.61 | SHP2 N-SH2 domain L43F 1.52 | SHP2 N-SH2 domain T42A 1.45 | SHP2 N-SH2 domain T52S 1.37 | [2] 1.91

CPEARYNRSPI [PTAR1_Y42]
inactive: SHP2 C-SH2 domain E139D 0.742 | [1] 0.804 | SHP2 N-SH2 domain L43F 0.82 | SHP2 N-SH2 domain T42A 0.616 | SHP2 N-SH2 domain T52S 0.605 | [2] 1.01

AVISVYDLVAV [PSEN1_Y256]
inactive: SHP2 C-SH2 domain E139D 1.5 | [1] 1.67 | SHP2 N-SH2 domain L43F 1.86 | SHP2 N-SH2 domain T42A 1.57 | SHP2 N-SH2 domain T52S 2 | [2] 1.78

FETNVYVDKNL [PTCHD3_Y688_K685T]
inactive: SHP2 C-SH2 domain E139D 1.03 | [1] 1.01 | SHP2 N-SH2 domain L43F 0.916 | SHP2 N-SH2 domain T42A 0.641 | SHP2 N-SH2 domain T52S 0.743 | [2] 0.868

KKGMIYGGGGG [PSME1_Y249_T244K]
inactive: SHP2 C-SH2 domain E139D 0.725 | [1] 0.715 | SHP2 N-SH2 domain L43F 0.621 | SHP2 N-SH2 domain T42A 0.545 | SHP2 N-SH2 domain T52S 0.705 | [2] 0.689

EALDFYGEVKT [PTEN_Y155_R159K]
inactive: SHP2 C-SH2 domain E139D 0.912 | [1] 0.742 | SHP2 N-SH2 domain L43F 0.787 | SHP2 N-SH2 domain T42A 0.631 | SHP2 N-SH2 domain T52S 0.993 | [2] 0.999

CEDGNYSPEIS [PTDSS1_Y424_T423N]
inactive: SHP2 C-SH2 domain E139D 0.435 | [1] 0.34 | SHP2 N-SH2 domain L43F 0.396 | SHP2 N-SH2 domain T42A 0.485 | SHP2 N-SH2 domain T52S 0.491 | [2] 0.64

SRNSKYNAEST [PSEN1_Y315_K311R]
inactive: SHP2 C-SH2 domain E139D 0.535 | [1] 0.451 | SHP2 N-SH2 domain L43F 0.469 | SHP2 N-SH2 domain T42A 0.557 | SHP2 N-SH2 domain T52S 0.397 | [2] 0.579

EFITRYIASLK [PSMA7_Y110_YF]
inactive: SHP2 C-SH2 domain E139D 1.71 | [1] 1.72 | SHP2 N-SH2 domain L43F 1.67 | SHP2 N-SH2 domain T42A 1.77 | SHP2 N-SH2 domain T52S 1.92 | [2] 1.73

EALDFYGELRT [PTEN_Y155_V158L]
inactive: SHP2 C-SH2 domain E139D 0.757 | [1] 0.886 | SHP2 N-SH2 domain L43F 0.786 | SHP2 N-SH2 domain T42A 0.725 | SHP2 N-SH2 domain T52S 0.672 | [2] 0.99

FEKNVYVDKNL [PTCHD3_Y688]
inactive: SHP2 C-SH2 domain E139D 0.895 | [1] 0.507 | SHP2 N-SH2 domain L43F 0.654 | SHP2 N-SH2 domain T42A 0.554 | SHP2 N-SH2 domain T52S 0.807 | [2] 0.979

SENFTYIWWLN [PSG4_Y271_K267E_YF]
inactive: SHP2 C-SH2 domain E139D 0.425 | [1] 0.625 | SHP2 N-SH2 domain L43F 0.55 | SHP2 N-SH2 domain T42A 0.483 | SHP2 N-SH2 domain T52S 0.496 | [2] 0.622

SKNYTYIWWLN [PSG4_Y271]
inactive: SHP2 C-SH2 domain E139D 0.883 | [1] 0.858 | SHP2 N-SH2 domain L43F 1.04 | SHP2 N-SH2 domain T42A 0.786 | SHP2 N-SH2 domain T52S 1.16 | [2] 0.96

SKNSKYNAGST [PSEN1_Y315_E318G]
inactive: SHP2 C-SH2 domain E139D 0.401 | [1] 0.293 | SHP2 N-SH2 domain L43F 0.638 | SHP2 N-SH2 domain T42A 0.51 | SHP2 N-SH2 domain T52S 0.545 | [2] 0.541

LLVVLYKFRCF [PSEN1_Y154_Y159F_YF]
inactive: SHP2 C-SH2 domain E139D 2.68 | [1] 2.27 | SHP2 N-SH2 domain L43F 1.78 | SHP2 N-SH2 domain T42A 1.97 | SHP2 N-SH2 domain T52S 2.17 | [2] 2.12

PSQRCYVYYYS [PTEN_Y174_R173C]
inactive: SHP2 C-SH2 domain E139D 0.703 | [1] 0.941 | SHP2 N-SH2 domain L43F 0.717 | SHP2 N-SH2 domain T42A 0.611 | SHP2 N-SH2 domain T52S 0.785 | [2] 0.9

VVFIKYLPEWT [PSEN1_Y240_L235V]
active: SHP2 C-SH2 domain E139D 3.75 | [1] 4.32 | SHP2 N-SH2 domain L43F 3.63 | SHP2 N-SH2 domain T42A 3.37 | SHP2 N-SH2 domain T52S 3.78 | [2] 4.32

TEDPEYDVQSK [PTCHD3_Y335]
inactive: SHP2 C-SH2 domain E139D 0.384 | [1] 0.523 | SHP2 N-SH2 domain L43F 0.228 | SHP2 N-SH2 domain T42A 0.337 | SHP2 N-SH2 domain T52S 0.318 | [2] 0.311

AVISVYDLVAF [PSEN1_Y256_V261F]
inactive: SHP2 C-SH2 domain E139D 1.48 | [1] 1.29 | SHP2 N-SH2 domain L43F 1.49 | SHP2 N-SH2 domain T42A 1.43 | SHP2 N-SH2 domain T52S 1.46 | [2] 1.55
